In PubChem BioAssay AID1508642 (National Center for Advancing Translational Sciences (NCATS), 2021):
Hit rate of the full screen: of about 43,000 compounds, about 200 (0.47%) were called active. Inconclusive results (about 12%) are left out. The call rests on the fitted dose curve; in most records, active means well fitted cell-killing curve with a large enough effect; inconclusive means small, poorly fitted or top-dose-only effect, or effect the other way; inactive means flat fitted curve, though single readings scatter. Some of the results follow.

Experiment: Cell viability qHTS assay in S16 Pmp22-F2sN cells; further: nearly all actives have a fitted effect of over 65% in size
Details: S16 Pmp22-F2sN Schwann cells viability, CellTiter-Glo, 24 h; series mostly up to 57.5 µM; activity change, negative = cytotoxicity: at the top concentration
Method in brief: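 S16 Pmp22-F2sN Schwann cells (500-1,000/well) in phenol-red-free DMEM with 10% FBS received 23 nL compound by pin tool for 24 h at 37 °C. Viability was then read as CellTiter-Glo luminescence after 15 min at room temperature.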
On the % scale 0 is the no-effect control and ±100 the full control effect.

Row | Structure (SMILES) | activity change, negative = cytotoxicity
1 | O=C1CC(c2ccc(F)cc2F)c2cc3c(cc2N1)OCO3 (stereo unspecified) | inactive: 2.54%
2 | COc1ccc(OC)c(NC(=O)Cn2c(=O)n(-c3ccc(Cl)cc3)c(=O)c3c(C)c(C)sc32)c1 | inactive: -3.63%
3 | CCOC(=O)c1c(NC(=O)COc2ccc(C(C)(C)C)cc2)sc2c1CCCC2 | inactive: 5.9%
4 | CCc1cccc(CC)c1NC(=O)Cn1nnc2sc3c(c2c1=O)CCCC3 | inactive: -11.3%
5 | Cc1ccc(NC(=O)c2c(C)nn(-c3ccccc3)c2-n2cccc2)c(Cl)c1 | inactive: -28.7%
6 | Cc1ccc2c(c1)N(C(=O)CCC(=O)NCc1cccs1)CC(C)O2 (stereo unspecified) | inactive: -0.784%
7 | COC(=O)c1ccccc1NC(=O)Cn1c(CCC(=O)O)ccc1-c1ccc(C)cc1 | inactive: -10.4%
8 | Cc1cccc(CC(=O)Nc2c(C(=O)Nc3cccc(F)c3)oc3ccccc23)c1 | inactive: -6.88%
9 | CCOC(=O)C1CCN(C(=O)Cn2ncc3c4ccccc4n(Cc4ccccc4)c3c2=O)CC1 | inactive: -1.97%
10 | CCc1ccc(NC(=O)CCCc2nnc3n(CCCOC)c(=O)c4sccc4n23)cc1 | inactive: 10.2%
11 | Cc1ccc(NC(=O)C(C)Sc2nc3c(c(=O)[nH]2)CCCC3)cc1Cl (stereo unspecified) | inactive: -0.229%
12 | CSc1cccc(NC(=O)CN2C(=O)CCc3cc(S(=O)(=O)N4CCCCC4)ccc32)c1 | inactive: 0.646%
13 | CCOc1ccc(CNC(=O)C2CCCN(c3nn4cc(-c5ccc(F)cc5)nc4s3)C2)cc1 (stereo unspecified) | inactive: 13.7%
14 | COc1ccc(-n2c(=O)c3c(c4cc(OC)ccc4n3C)n(CC(=O)N3CCCC3)c2=O)cc1 | inactive: 12.7%
15 | CCOc1ccc(/C=C/c2nc(C#N)c(NCCCN(C)C)o2)cc1 | inactive: -23.8%
16 | CCc1ccc2oc(-c3ccc(NC(=O)c4cccc(Cl)c4Cl)cc3)nc2c1 | inactive: -13.9%
17 | O=C(Cn1cnc2c(nc3n2CCCCC3)c1=O)Nc1cccc(C(F)(F)F)c1 | inactive: -1.99%
18 | COC(=O)c1ccccc1NC(=O)Cn1c(=O)n(CCCC(=O)NCc2ccccc2Cl)c(=O)c2ccccc21 | inactive: 11.9%
19 | O=C(COc1ccccc1Cl)N(Cc1cccc(F)c1)C1CCS(=O)(=O)C1 (stereo unspecified) | inactive: 10.9%
20 | CCOc1ccccc1NC(=O)CSc1ccc2nc(-c3ccccc3)cn2n1 | inactive: -19.1%
21 | Cc1cc(=O)n(Cc2c(F)cccc2Cl)c2c1c(C)nn2C | inactive: -0.267%

Row | Structure (SMILES) | activity change, negative = cytotoxicity
22 | CCOC(=O)Cn1c(CN2CCN(c3ccc(OC)cc3)CC2)nc2c1c(=O)[nH]c(=O)n2C | inactive: 0.489%
23 | COc1ccc(CCNC(=O)Cn2c(-c3ccc(F)cc3)cc(C(C)=O)c2C)cc1OC | inactive: -2.94%
24 | CCOC(=O)C1CCN(C(=O)CSc2n[nH]c(-c3ccc(OC)cc3)n2)CC1 | inactive: -4.31%
25 | Cn1c(=O)n(C)c2cc(N3CCOCC3)c(NS(=O)(=O)c3ccc(Cl)cc3)cc21 | inactive: -3.03%
26 | Cc1ccc(-n2c(=O)c3c(cnn3C)n(CC(=O)Nc3cccc(C)c3)c2=O)cc1 | inactive: 20.7%
27 | COc1ccccc1N1CCN(C(=O)c2cc3c(-c4ccccc4F)nn(C)c3s2)CC1 | inactive: -21.4%
28 | COc1cc2ccccc2cc1C(=O)N1CCN(c2nc3c(F)cc(F)cc3s2)CC1 | inactive: -0.0817%
29 | CCCC(=O)Nc1cc(-c2nnc3c4ccccc4c(C)nn23)ccc1C | inactive: -2.6%
30 | Cc1ccc(C)c(OC(=O)CSc2nnc(-c3cccs3)o2)c1 | inactive: 3.12%
31 | COc1ccc2c(c1)CC(C(=O)NCCc1ccc(S(N)(=O)=O)cc1)CO2 (stereo unspecified) | inactive: 4.72%
32 | Cc1ccc(Cn2cc(S(=O)(=O)c3ccc(Cl)cc3)c(=O)c3cc4c(cc32)OCO4)cc1 | inactive: 0.49%
33 | CC(=O)Nc1ccc(NC(=O)C(NS(=O)(=O)c2ccc(Br)s2)c2ccccc2)cc1 (stereo unspecified) | inactive: 2.37%
34 | COc1cc(NC(=O)Cn2nnnc2-c2ccccc2F)cc(OC)c1OC | inactive: -0.758%
35 | CC(=O)N1CCc2cc(S(=O)(=O)NC(Cc3ccccc3)C(=O)NCc3ccccc3Cl)ccc21 (stereo unspecified) | inactive: -15.9%
36 | CCCc1ccc(OC(C)c2nc(-c3ccc(-n4cccc4)cc3)no2)cc1 (stereo unspecified) | inactive: -9.25%
37 | CCOc1ccc2nc(N(Cc3cccnc3)C(C)=O)sc2c1 | inactive: 2.48%
38 | O=C1CC(=O)Nc2cc(S(=O)(=O)Nc3ccc(F)cc3Cl)ccc2N1 | inactive: -5.69%
39 | Cc1ccc(OCCSc2nc3ccc(NC(=O)c4ccco4)cc3s2)cc1 | inactive: 13.2%
40 | COc1ccc(-c2cc3ccc(O)c(CN4CCCCC4C)c3oc2=O)cc1OC (stereo unspecified) | inactive: -8.37%
41 | Cc1cccc2c(=O)cc(CSc3ccccc3NC(=O)C(C)(C)C)[nH]c12 | inactive: 16.9%
42 | CCOC(=O)c1cc(S(=O)(=O)NCc2ccc(OC)cc2)[nH]n1 | inactive: -0.0199%

Row | Structure (SMILES) | activity change, negative = cytotoxicity
43 | CCCC(=O)Nc1ccccc1C(=O)OCc1cc(=O)n2nc(C(C)C)sc2n1 | inactive: 8.88%
44 | Cc1cc(C)cc(NC(=O)N2CCN(C(=O)c3nsc4ccccc34)CC2)c1 | inactive: 2.9%
45 | COc1ccc(OC)c(S(=O)(=O)N2CCN(Cc3nc4ccc(C)cc4o3)CC2)c1 | inactive: 0.586%
46 | CCN(C(=O)Cn1c(=O)n(Cc2ccc3c(c2)OCO3)c(=O)c2ccc(C(=O)NC3CCCCC3)cc21)c1cccc(C)c1 | inactive: 0.824%
47 | COc1ccc(NC(=O)c2cc3c(=O)n(Cc4cccnc4)ccc3nc2C)c(OC)c1 | inactive: -1.59%
48 | O=C(Nc1ccc(N2CCOCC2)c(C(=O)O)c1)c1ccc(Br)cc1 | inactive: 2.96%
49 | Cc1ccc(CNC(=O)Cn2ccn(-c3ccc(F)cc3)c(=O)c2=O)cc1 | inactive: -0.0951%
50 | Cc1cccc(CN2C(=O)c3ccccc3S(=O)(=O)c3ccc(C(=O)NC4CCCCC4)cc32)c1 | inactive: -8.28%
51 | Cc1ccc(NC(=O)c2c(C)oc3ncn(CC(C)C)c(=O)c23)nc1 | inactive: -28.2%
52 | Cc1ccc2nc3c(cc(C(=O)NCc4ccco4)c(=N)n3C(C)C)c(=O)n2c1 | inactive: 10.7%
53 | CCn1c(=O)c2cc(C(=O)NCCc3ccc(Cl)cc3)sc2c2ccccc21 | inactive: 21.1%
54 | CCn1c(=O)c2sccc2n2c(CCC(=O)Nc3ccc(C(C)C)cc3)nnc12 | inactive: 15.9%
55 | Cc1ccc(N(C)C(=O)C2CCN(S(=O)(=O)c3cn(C)cn3)CC2)cc1 | inactive: 5.52%
56 | COc1cc(C2c3c(oc4ccccc4c3=O)C(=O)N2Cc2ccc(C)cc2)ccc1O (stereo unspecified) | inactive: 8.85%
57 | CC1CCN(CCCNC(=O)CN2C(=O)CSc3ccc(S(=O)(=O)N4CCOCC4)cc32)CC1 | inactive: 16.9%
58 | COc1ccc(OCC(=O)NC(Cc2c[nH]c3ccccc23)C(=O)O)cc1 (stereo unspecified) | inactive: -2.89%
59 | CCc1nnc(SC(CC)C(=O)Nc2cc(C)ccc2C)c2cc3occc3n12 (stereo unspecified) | inactive: -6.11%
60 | O=C(NCc1ccc(Cl)cc1)c1ccc(NC(=O)N2CC3CCCN3c3ccccc32)cc1 (stereo unspecified) | inactive: 1.57%
61 | Cc1ccc(CNC(=O)CCS(=O)(=O)c2cc3c(cc2Cl)NC(=O)CO3)cc1 | inactive: 4.04%
